Experimental data as given in the supplement of paper PMC3334620.
In all, about 33,000 sequences were measured (“E-score (-0.5 to 0.5)”: median about -0.035, highest 2% from about 0.35 on). The list shows a part of the results.

What follows are sequences tested against T1, Pdr3 (UniProt P33200) (assay: PBM E-score (8-mer binding enrichment) (E-score (-0.5 to 0.5)); higher = stronger / more preferred TF binding; most listed sequences are background and not binding sites). Details: protein concentration: 200 nM; construct: GST-full length.
T1 sequence: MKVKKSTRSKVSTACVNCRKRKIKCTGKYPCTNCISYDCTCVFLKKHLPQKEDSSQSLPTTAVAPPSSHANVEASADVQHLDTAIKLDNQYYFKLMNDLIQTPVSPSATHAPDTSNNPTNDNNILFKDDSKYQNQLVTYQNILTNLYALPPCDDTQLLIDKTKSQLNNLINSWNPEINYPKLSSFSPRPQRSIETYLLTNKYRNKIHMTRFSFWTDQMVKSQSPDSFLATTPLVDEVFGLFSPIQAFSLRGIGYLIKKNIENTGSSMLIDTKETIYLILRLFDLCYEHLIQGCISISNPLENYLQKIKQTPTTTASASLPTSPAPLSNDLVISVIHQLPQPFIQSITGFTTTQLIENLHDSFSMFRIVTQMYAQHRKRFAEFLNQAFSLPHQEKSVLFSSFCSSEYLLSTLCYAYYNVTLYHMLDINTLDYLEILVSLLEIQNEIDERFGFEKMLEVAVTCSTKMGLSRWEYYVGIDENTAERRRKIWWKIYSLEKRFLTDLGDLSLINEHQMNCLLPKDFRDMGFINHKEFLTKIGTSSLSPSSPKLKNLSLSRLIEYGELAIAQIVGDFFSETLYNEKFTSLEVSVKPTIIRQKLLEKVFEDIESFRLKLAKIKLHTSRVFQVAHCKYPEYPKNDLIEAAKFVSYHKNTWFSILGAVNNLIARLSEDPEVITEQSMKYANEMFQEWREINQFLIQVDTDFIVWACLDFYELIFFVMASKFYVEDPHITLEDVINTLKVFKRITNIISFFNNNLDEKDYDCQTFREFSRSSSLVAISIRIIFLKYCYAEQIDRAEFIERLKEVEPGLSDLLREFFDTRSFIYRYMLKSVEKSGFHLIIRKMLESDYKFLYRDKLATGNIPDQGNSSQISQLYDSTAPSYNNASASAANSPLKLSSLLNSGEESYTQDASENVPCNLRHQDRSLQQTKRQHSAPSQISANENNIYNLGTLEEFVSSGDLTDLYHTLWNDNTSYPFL
Method in brief: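 Bound GST-tagged yeast transcription factors, applied at about 100-200 nM to double-stranded universal all-10-mer Agilent arrays, were detected with fluorescent anti-GST. Scans were normalised with masliner. A modified Wilcoxon-Mann-Whitney statistic, the E-score, was assigned to each ungapped eight-base word pooled with its reverse complement by the Universal PBM Analysis Suite.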

| Sequence | PBM E-score |
| --- | --- |
| AGTGCGGA | 0.377 |
| CAGAGCGC | -0.233 |
| AGATCCAT | -0.0187 |
| AAAATCGT | -0.169 |
| TAAACTTA | -0.229 |
| ATGGGAGA | -0.29 |
| CTGTTTCA | -0.142 |
| GGAGAACC | 0.164 |
| AGGCGCGG | 0.0455 |
| GTGCCAAC | -0.0172 |
| AGGAGGAA | -0.2 |
| ACCCAAGT | -0.00356 |
| ATACTGGG | -0.00887 |
| AACTAGTC | -0.117 |
| AACGATCG | 0.0619 |
| AAGCTTGG | -0.167 |
| ACGCCATG | -0.139 |
| CGCTGGTA | -0.18 |
| AACCACCT | 0.171 |
| CACGTCAA | -0.236 |
| ATATCCAT | -0.00671 |
| AATTGGTC | 0.145 |
| AGATCTAT | -0.249 |
| AGCGTGAC | -0.022 |
| CAGGAACC | -0.124 |

| Sequence | PBM E-score |
| --- | --- |
| CTCTTCCC | 0.0704 |
| AGCTCTTG | -0.197 |
| ATTAAAGG | 0.00041 |
| AGTGCTGA | -0.177 |
| ACGGCGGC | 0.0734 |
| CCCTTACC | -0.206 |
| ACGAACCG | 0.00965 |
| GAAACTTC | 0.00211 |
| ATCCGTCC | 0.225 |
| CGGGTACC | 0.258 |
| ATTTCCAC | 0.131 |
| GCCAGGCA | 0.0885 |
| CACCCTTA | -0.138 |
| ACGTCAAA | -0.154 |
| GTATGATA | 0.0443 |
| AGCCTAAT | -0.208 |
| AATATTAA | 0.244 |
| ATATATGA | -0.129 |
| AACAACGC | 0.0678 |
| CGGTCCAG | -0.0751 |
| ACGCTAGG | -0.296 |
| CTTTCGTA | -0.0604 |
| GACGTACC | -0.145 |
| CATGATGA | -0.187 |
| TACGCGAA | -0.0666 |

| Sequence | PBM E-score |
| --- | --- |
| AAGGCGGT | -0.0371 |
| AGGCTAGG | -0.306 |
| TTGCACAA | -0.166 |
| CGATCATC | 0.012 |
| AGCATGTG | -0.0452 |
| GGAACGTA | 0.136 |
| CGCGGAAG | 0.454 |
| GCATTGCC | -0.0563 |
| ACCGGTGC | 0.142 |
| AATAGTTC | 0.105 |
| AATAACTC | 0.0165 |
| CCGCTAAA | 0.144 |
| CCCAGCCC | -0.179 |
| AAGTATCG | -0.0468 |
| GGATCCAA | 0.25 |
| AAAGTTGC | -0.0111 |
| TACCGTCA | 0.0536 |
| TAGCTCAA | -0.152 |
| AGGGCCCC | -0.0783 |
| TGAGCGCA | -0.0403 |
| CGCCCAGA | -0.149 |
| ACCGTTTG | -0.104 |
| AGGGGTCC | -0.0897 |
| CCTGGCGA | -0.0667 |
| AATCCAGT | 0.179 |

| Sequence | PBM E-score |
| --- | --- |
| CAACAGGC | -0.208 |
| CCTTAGGA | -0.126 |
| TATTTCAA | -0.154 |
| AGGTCTTG | 0.00578 |
| AAGGGGGA | -0.0907 |
| ATTGTATA | 0.203 |
| TGGCAACA | -0.217 |
| CGGAGGAA | 0.268 |
| TGATTCAA | 0.0405 |
| CACATGGA | -0.158 |
| TCGCCCAA | -0.0429 |
| ATGAATAC | -0.0134 |
| CAACCGGG | 0.129 |
| TGTGATAA | -0.121 |
| AAGTGCAA | -0.155 |
| ATGAGGAC | -0.126 |
| GCCATCGC | -0.239 |
| AGATAATG | -0.037 |
| CGTTTGCC | 0.0664 |
| ATTATTAA | 0.126 |
| CACGCCGG | 0.302 |
| TGAAAAAA | 0.0176 |
| ACAATCGA | -0.155 |
| ACGCGCGG | 0.308 |
| CTCATAGA | -0.16 |

| Sequence | PBM E-score |
| --- | --- |
| TATACTGA | 0.179 |
| ACAAAGTG | -0.0193 |
| ATATCGGG | 0.143 |
| AATGAAGT | -0.0777 |
| TCAAATGA | -0.0624 |
| GCATACAA | 0.00355 |
| AACGGGAA | 0.354 |
| ACGTGTAG | -0.0709 |
| ACCACGTG | -0.071 |
| GCATCCCC | 0.112 |
| GGACTCTA | -0.111 |
| ACGGCGAG | 0.081 |
| TCCTAAGA | -0.101 |
| GTTGTAAA | -0.194 |
| ATATGATG | -0.0783 |
| AGGGCAGC | -0.0534 |
| AAACATGG | -0.125 |
| ATGCACAA | -0.0898 |
| ACCAGCGC | -0.153 |
| GCTTGATA | -0.112 |
| GAATAAAA | 0.0146 |
| CGTCGGTA | -0.0309 |
| AGTCACCC | -0.0284 |
| AGGTATTA | 0.0106 |
| ACTACTAG | 0.0119 |

| Sequence | PBM E-score |
| --- | --- |
| GCTTGCCA | -0.15 |
| AGCGCGCT | 0.216 |
| TCGGCGAA | 0.12 |
| ACTCTAAA | 0.033 |
| CTGAAGTC | 0.0005 |
| CATAATCG | 0.182 |
| ATTAAGTC | -0.179 |
| CTACCGCA | -0.0949 |
| AAGAGGTG | 0.0433 |
| GGTGACAA | 0.0857 |
| GCATCACC | -0.0935 |
| TTCCTAAA | -0.343 |
| AGGTGAGG | -0.133 |
| CCCGGCAA | 0.286 |
| GCCCTGCC | 0.0537 |
| AGAAGTCC | -0.088 |
| CTGAACGC | -0.131 |
| CAATACGC | -0.00732 |
| CCGGCCGG | 0.472 |
| AGGAACCT | 0.0199 |
| ATGTTATA | -0.2 |
| ATAGGCAA | -0.213 |
| ACTCGCTC | 0.0428 |
| GACTGTGA | -0.0864 |
| AGCCCATA | -0.0787 |

| Sequence | PBM E-score |
| --- | --- |
| CTAGATGC | 0.0149 |
| AGGATTCC | 0.223 |
| GGCCGCCA | 0.0352 |
| CCATCTCC | 0.155 |
| AGCTCTTA | -0.00706 |
| CCGCGTTA | 0.207 |
| ATCCAGTG | 0.079 |
| GCGCTCGA | 0.0416 |
| TAATTCTA | -0.109 |
| CTCCTGGA | -0.254 |
| GCCGGACA | 0.315 |
| ACGTCGGG | 0.138 |
| GATTAGGA | 0.0136 |
| CTCAGGAA | -0.0996 |
| AGTTTAAG | -0.233 |
| CTGAGACA | -0.184 |
| TTAAGCAA | -0.0988 |
| CGCAAAGC | 0.0757 |
| ACGAGGGA | -0.00861 |
| CTCCGAAA | 0.275 |
| GAGATGGA | 0.0859 |
| CAAGAACA | -0.149 |
| ATCTCCGC | 0.292 |
| GGTATGTA | -0.0939 |
| CCACTTGC | -0.0888 |

| Sequence | PBM E-score |
| --- | --- |
| ACCCATCT | 0.00637 |
| CGACTCGA | -0.0764 |
| AAATGAAA | 0.0812 |
| AGGCTTAA | -0.106 |
| CGTCGGAA | 0.411 |
| ACCGTCCT | -0.18 |
| AAATTGGA | -0.0205 |
| ACCAGGTA | -0.139 |
| AACGATTG | -0.0641 |
| AGGTAGTG | -0.0686 |
| CCTTGGAG | -0.0642 |
| ACGGTTAT | -0.0715 |
| CAATGAGA | -0.229 |
| CACACGTA | -0.257 |
| CCGTTGCG | 0.17 |
| CGGAGGGA | 0.234 |
| GAGAAACA | -0.0163 |
| GAGTGTGA | -0.145 |
| CGGCCAAC | 0.0406 |
| ATCCCTAA | -0.28 |
| GCAGCGGC | 0.0363 |
| AAAGCCGC | 0.205 |
| TCTAGAGA | -0.283 |
| CGTATTAG | 0.0838 |
| AAAAGGTT | -0.0641 |

| Sequence | PBM E-score |
| --- | --- |
| ATTCATCC | 0.111 |
| AGATAGTC | -0.131 |
| CCCTGAGG | -0.279 |
| CCATAATA | 0.0878 |
| CAGTGATC | -0.0442 |
| CGTGACCC | 0.0915 |
| AGTGGCCG | 0.0689 |
| CCCATCGC | 0.115 |
| GTTTCTTA | -0.0951 |
| GAATTACA | 0.0153 |
| GCGGGAAA | 0.332 |
| ATGTCGGA | 0.309 |
| GGCTGAAA | 0.0115 |
| CTCTCGCC | -0.144 |
| AGATCGAA | -0.067 |
| AAAATCTA | -0.0831 |
| AAACTCTA | -0.112 |
| CAGGTTAA | -0.116 |
| CTATGAGA | -0.288 |
